# The source gives no read counts; variants with many changes may rest on few reads.
# B1: LINE1-mini (parent)
# chain: GGCAGAGCUCAACACAGCGUGGCAAAGUGGCUGUGGCUAGACUGCC
# Variants of: B1
# Assay: self-cleavage, relative activity (ratio to wild type); higher = more cleavage; in vitro, sequencing; the parent is a self-cleaving ribozyme
row,Variant,self-cleavage
1,GGCAUAGCUCUACACAGCGUGGCAAAGUGGCUGUGGCUCGACUGCC [G5U A11U A39C],0.02
2,GGCAUAGCUCUCCACAGCGAGGCAAAGUGGCUGUGGCUAGACUGCU [G5U A11U A12C U20A C46U],0
3,GGCAUAGCUCACUGCAGCGUGGCAAAGUGGCUGUGGCUAGACUGCC [G5U A12C C13U A14G],0.02
4,GGCAUAGCUCUACACAGCGUGUCAAAGUGGCUGUGGCUAGACUGCC [G5U A11U G22U],0.03
5,GGCAUAGCUCAACACAGCGUGGCCAAGUGGCUGAGUCUAGACUGCC [G5U A24C U34A G36U],0.12
6,GGCAUAGCUCAACGCAGCGUGGCUAAGUGGCUGUGGCUAGACUGCC [G5U A14G A24U],0.11
7,GGCAUAGCUCAACACGGCGUGGCAAAGUGGCUGUGGCUAGGCUCCG [G5U A16G A41G G44C C46G],0.01
8,GGCAUUUCUCAACACAGCAUGGCAAAGUGGCUGUGUCUAGACUGCC [G5U A6U G7U G19A G36U],0.14
9,GGCAUAGCUCAACUCAGCGUGGCAAUGUGGCUGUGGGUAAACUGCC [G5U A14U A26U C37G G40A],0.03
10,GGCACAGCUCAACACAGCGUGGCAAAGUGGCUGGGGCUCGAAUGCC [G5C U34G A39C C42A],0.03
11,GGCAUCGCUCAGCACAGCGUGGCAAAGUGGCUGUGGCUAGACUGCC [G5U A6C A12G],0.04
12,GGCAUCGCUCACCACAGCUUGGGAAAAUGGCUGUGGCUAGACUGCC [G5U A6C A12C G19U C23G G27A],0.02
13,GGCACAGCUCAACACAGCGUGGCAAAGUGGCUGAGGCUAGAGUGCG [G5C U34A C42G C46G],0.02
14,GGCAUAGCUCACCACAGCGUGGAAAAGUGGCUGUGGCUAGACUGCC [G5U A12C C23A],0.02
15,GGCAUCGGUCAACACAGCGUGGUAAAGUGGCUGUGGCUAGACUGCC [G5U A6C C8G C23U],0.01
16,GGCAUAGCUCAACGCAGCGUGGCAAAGUGGCUGUGGGUAGACUGCC [G5U A14G C37G],0.17
17,GGCAUAGCUCACCACAGCGGGGCUAAGUGGCUAAGGGUAGACUGCC [G5U A12C U20G A24U G33A U34A C37G],0.02
18,GGCAUAGCUCAACCCAGCGUGGCAAAGGGGCUGUGGCUCGACUGCC [G5U A14C U28G A39C],0.02
19,GGCACAGCUCAACACAGCGUGGCAAAGGGGCUGUGGCUACACUGCC [G5C U28G G40C],0.01

row,Variant,self-cleavage
1,GGCAUUGCUCAACACAGCGGGGCAAAGUGGCUAAGGCUAGGCUUGC [G5U A6U U20G G33A U34A A41G G44U C45G],0
2,GGCAUAGCUCAACGCAACGUGGCAAAGUGGCGGUGGUUAGACUGCC [G5U A14G G17A U32G C37U],0.05
3,GGCACAGCUCAACACAGCGUGGCAAAGUGGCCGAGGCUAGACUGCC [G5C U32C U34A],0
4,GGCAUAGCUCAGCACAGCGUUGCAAAGUUGCUGUGGCGUCACUGCC [G5U A12G G21U G29U U38G A39U G40C],0
5,GGCAUCGCUAAACACGGCGUGGCAAAGCGGCUGUGGAUAGACUGCC [G5U A6C C10A A16G U28C C37A],0
6,GGCACAGCUCAACACAGCGUGGCAAAGUGGCUGUGGCUAGACGGCA [G5C U43G C46A],0.02
7,GGCAUAGCUCUACGCAGCGUGGCAAAGUUGCUGUGGCUAGACUGCC [G5U A11U A14G G29U],0
8,GGCAUAGCUCAACCCACCGUGGCAAAGUGGCUGUGCCUAGACUGCC [G5U A14C G17C G36C],0.05
9,GGCAUUGCUCAACACAGCGUGGCUAAGUGGCUGUGGCUAGACUACC [G5U A6U A24U G44A],0.07
10,GGCAUAGCUCAACACUGCGUGGCAAAGUGGCUGUGGCUAGACAGCC [G5U A16U U43A],0.14
11,GGCAUUGCUCAGCACAGCUUGGCAACGUGGCUGUGGCUAGACUGUC [G5U A6U A12G G19U A26C C45U],0.02
12,GGCAUAGCUCGACACAGCGUGGCAAAGUGGCUGUGGCUGGACUGCC [G5U A11G A39G],0.01
13,GGCAUAGCUCGACAUUGCGUGGCAAAGUGGCUGUGGCUAGACUGCC [G5U A11G C15U A16U],0.08
14,GGCACAGCUCAACACAGCGUGGCAAAGCGGCCGUUGCUAGACUGCC [G5C U28C U32C G35U],0.01
15,GGCAUUGCUCAACACAGCGUGGCAAAGUGGCUGUGGCUAGUCUGCC [G5U A6U A41U],0.11
16,GGCAUAGCUCAACGCAGCGUGGCAAUGUGUGUGUAGCUAGUCUGCC [G5U A14G A26U G30U C31G G35A A41U],0
17,GGCAUAGCUCCACUCCGCGUGGCAAAGUGGCUGUGGCUAGACUGAC [G5U A11C A14U A16C C45A],0.03
18,GGCAUGCCUCAACAUAGCGUGGCAAAGUGGCUGUGGCUAGACUGCC [G5U A6G G7C C15U],0.08
19,GGCAUAGCUCCACACAGCGUGGCCAACUGGCUGUGGUUAGACUGCC [G5U A11C A24C G27C C37U],0.01

row,Variant,self-cleavage
1,GGCAUAGCUCGACACAGCGUGGCAAAGUGGCUGUGGCUAGACUAUC [G5U A11G G44A C45U],0.02
2,GGCAUAGCUCAACCCAGCGUGGCAAAGUGGCUGUGGCUAAACUGCC [G5U A14C G40A],0.08
3,GGCAUUGCUCAACACAGCGUGUCAAAGUGGCUGUGGCUAGACUGCC [G5U A6U G22U],0.16
4,GGCAUAGCUCAACACCGCGUGGCAAUGUCGCUGUUGCUAGACUGCC [G5U A16C A26U G29C G35U],0.01
5,GGCAUAGCUCACCACAGCGUUGCAAAGUGGCUGUGGCUAGACUGCA [G5U A12C G21U C46A],0.01
6,GGCAUAGCUCAACUCAGCGUGGCAAAGUAGUUGUGGCUAGACUGCC [G5U A14U G29A C31U],0
7,GGCAUUGCUCAACAUAGCGUGGCAAAGUGGCUGCGGCUAGACUGCC [G5U A6U C15U U34C],0.01
8,GGCAUAGCUCAACACGGCGUGGUAAAGUGGCUGUUGCUAGACUGCC [G5U A16G C23U G35U],0.06
9,GGCAUAGCUCAACACCGGGUGGCAAAGUGCCUGUGGCUAGACUUCC [G5U A16C C18G G30C G44U],0.03
10,GGCAUAGCUCAACACAGCGUGGCUACGGGGCCGUGGAUAGACUGCC [G5U A24U A26C U28G U32C C37A],0.03
11,GGCAUAGCUCGACACAGCGUGGCAAUGUGUCCGUGGCAAGACUGCC [G5U A11G A26U G30U U32C U38A],0.01
12,GGCAUAGCUCCUCACAGCGUGGCAAAGUGGCUGUGGCUAGACUUCC [G5U A11C A12U G44U],0.04
13,GGCACAGCUCAACACAGCGUGGCAAAGAGGCUGUGGCUAGACUACC [G5C U28A G44A],0.12
14,GGCAUAGCUCCACACAGCAUGGCAAAGUUGCUGUGGCUAGACUGCC [G5U A11C G19A G29U],0.03
15,GGCAUGGGUCAACACAGCGUGGUAAAUUGGCUGCGGCUAAACUGCC [G5U A6G C8G C23U G27U U34C G40A],0.01
16,GGCAUAGCUCAGCACAGCGUGGCAAAGUGGCUGUUGCUAGACCGCC [G5U A12G G35U U43C],0
17,GGCAUAGCUCUACUCAGCGUGGCAAAGUGGCUGUGGCUAGACUGCC [G5U A11U A14U],0.05
18,GGCAUAGCUCAACACAGCGUGGCGAAGUGGCUGUGGCUAGCCUGCC [G5U A24G A41C],0.05

# From the RNAGym collection of RNA variant scans (doi:10.7554/elife.90254)
